Experiment [1] deals with Chlamydia trachomatis F/UW-6/Cx. The experiment in a line: In vitro test 1: inhibition of inclusion formation in HeLa 229 cells (Japan Society of Chemotherapy standard method), C. trachomatis F/UW-6/Cx. The note with it: 72 h, read-out: minimum inhibitory concentration (MIC) capable of inhibiting inclusion formation.
The test system of experiment [2] is Chlamydia trachomatis D/UW-3/Cx. The experiment in a line: In vitro test 1: inhibition of inclusion formation in HeLa 229 cells (Japan Society of Chemotherapy standard method), C. trachomatis D/UW-3/Cx. The note with it: 72 h, read-out: minimum inhibitory concentration (MIC) capable of inhibiting inclusion formation.

SMILES strings stand for the structures. In brackets after ≈: the same amount, converted by molar mass.

Turning to `COC1C=COC2(C)Oc3c(C)c(O)c4c(=O)c(c5oc6cc(N7CCN(CC(C)C)CC7)cc(O)c6nc-5c4c3C2=O)NC(=O)C(C)=CC=CC(C)C(O)C(C)C(O)C(C)C(OC(C)=O)C1C` (stereo not shown) [Compound 4], the MIC in experiment [1] and in experiment [2] was 0.125 ng/mL (≈ 0.133 nM) throughout.
Consider `CO[C@H]1/C=C/O[C@@]2(C)Oc3c(C)c(O)c4c(O)c(c(/C=N/N5CCN(C)CC5)c(O)c4c3C2=O)NC(=O)/C(C)=C\C=C\[C@H](C)[C@H](O)[C@@H](C)[C@@H](O)[C@@H](C)[C@H](OC(C)=O)[C@@H]1C` [rifampicin], for which the MIC in experiment [1] and in experiment [2] was 4 ng/mL (≈ 4.86 nM) throughout.

Source of the values: patent US5786349A, “Method for treating chlamydia infectious diseases by rifamycin derivative” (Kaneka Corporation, priority 1995, dated 1998).
